Laboratory results: article PMC4242493
The list shows a part of the results. The list includes weakly bound sequences.

molecular target: MaxL homodimer (UniProt P61244); test: universal protein-binding microarray (PBM); conditions: PBS-based mixture, 10 nM His-tagged protein dimer, 2% milk, 200 ng/uL BSA, 50 ng/uL salmon testes DNA, 0.02% TX-100; detection with Alexa 488 anti-His …; high values mean tight binding; most listed sequences are background and not binding sites; double strand, one strand shown
Chain of UniProt P61244 (P61244 whole entry): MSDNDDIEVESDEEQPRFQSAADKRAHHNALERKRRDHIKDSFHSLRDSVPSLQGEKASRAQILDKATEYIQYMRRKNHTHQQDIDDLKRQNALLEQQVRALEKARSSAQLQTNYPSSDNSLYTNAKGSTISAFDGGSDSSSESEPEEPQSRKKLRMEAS

Sequence | binding signal (normalized occupancy)
AGTGTGGC | 0.0795
ACAGAAAC | 0.0709
CTAGGTCC | 0.0723
GGTGACCA | 0.0763
TGATGAAA | 0.0725
AATCTCTC | 0.0762
ACAGTATC | 0.0818
ATTTAAGG | 0.0701
ACCATTAC | 0.0833
CTTGACCC | 0.0669
AACGCTCC | 0.0724
CATGTTAC | 0.0921
ACCACAAA | 0.0758
AACTACGG | 0.0714
AGATCAAA | 0.0729
ACATGAAA | 0.0847
GATAACTA | 0.0766
CAAGACTA | 0.0731
CTGTATTA | 0.0783
GGGAGGTA | 0.0765
AAGGCCAT | 0.083
ATACTGGG | 0.0746

Sequence | binding signal (normalized occupancy)
CTTTTATC | 0.0743
GCGGTCCA | 0.0728
ATGGCCAT | 0.0853
GAAAGATC | 0.0746
AAGGCGAC | 0.0723
TAACCGTA | 0.0779
ACTTGGTC | 0.0713
CCCAAGCC | 0.073
AATCAAGG | 0.0756
ACGCAAAT | 0.0748
ACACCACC | 0.086
CCTATGCA | 0.0852
CTCGACCA | 0.0708
TCCAAAAA | 0.0776
CCCGCGCG | 0.0753
TAAGTAGA | 0.0722
AGATAACG | 0.0827
CTTGAACC | 0.0766
CGCAACGA | 0.0716
ACTTAAAC | 0.0743
GCATCTGA | 0.0776
AGCCCTAC | 0.0714

Sequence | binding signal (normalized occupancy)
CGCGTTAC | 0.0854
CCCGCTAG | 0.069
TAAAGGTA | 0.0734
CGACAGGA | 0.0749
ACCTCCGT | 0.0689
TTCTTCAA | 0.071
ACGAGAGC | 0.0714
GGAAGAAA | 0.0704
GCGGTCCC | 0.0662
AGCGCCCC | 0.0711
CTTTAGCA | 0.0732
AGTTTTAA | 0.0717
GCGCCTCA | 0.0681
CTCTTACA | 0.0785
GTCTCTCA | 0.0721
CCTTCATA | 0.0746
GTAATGCA | 0.0819
AGTAGCCC | 0.0736
TACCACCA | 0.0811
ACAATCCA | 0.0737
GTGCTCTA | 0.078
GACGACCC | 0.0731

Sequence | binding signal (normalized occupancy)
CCTCAATA | 0.0821
CTATGAGA | 0.0748
CGGCCAAA | 0.0678
AACAGATT | 0.0721
AACTTCCT | 0.0757
AGAATTAC | 0.076
CCCCGATC | 0.0735
AGGACAGC | 0.0734
ATCAGACG | 0.0719
CTAAGCCC | 0.0716
ACGCCCCA | 0.0761
CGCGGTTA | 0.0774
AGAAAAGA | 0.0759
CTACCCAG | 0.0778
CAGCATCC | 0.0746
CTTGGAAA | 0.073
CGATTTAA | 0.071
ACATGCAA | 0.0826
CCAATCCA | 0.071
CCTTAGCG | 0.0683
AACAACAC | 0.0845
ACGTGAAC | 0.0842

Sequence | binding signal (normalized occupancy)
GCAATCTA | 0.0722
CACCATCG | 0.0762
AGGAGACC | 0.0785
ATACGAAA | 0.0771
AACCCCGA | 0.0806
GCCGGTCA | 0.0714
CCGCGTCG | 0.0731
CAGTGTAA | 0.073
ACTAAAAC | 0.0757
ACCTATCA | 0.0809
ACTATTCC | 0.078
ATATAATG | 0.0845
GCAGCAAA | 0.0697
ACCCTTAC | 0.0789
ACAAGGCA | 0.0809
CATGCATC | 0.0997
CTGGCTTC | 0.0686
AACCACGT | 0.123
AGGTTGCC | 0.0768
AAATCGAA | 0.0795
ACCCATAA | 0.0823
